Measurements as given in the supplement of paper PMC3334620.
Whole data set: some 33,000 sequences, median “E-score (-0.5 to 0.5)” near -0.036, cut for the highest 2% near 0.37. Some of the results follow.

Target: T1, Yer064c (UniProt P40041)
T1 sequence: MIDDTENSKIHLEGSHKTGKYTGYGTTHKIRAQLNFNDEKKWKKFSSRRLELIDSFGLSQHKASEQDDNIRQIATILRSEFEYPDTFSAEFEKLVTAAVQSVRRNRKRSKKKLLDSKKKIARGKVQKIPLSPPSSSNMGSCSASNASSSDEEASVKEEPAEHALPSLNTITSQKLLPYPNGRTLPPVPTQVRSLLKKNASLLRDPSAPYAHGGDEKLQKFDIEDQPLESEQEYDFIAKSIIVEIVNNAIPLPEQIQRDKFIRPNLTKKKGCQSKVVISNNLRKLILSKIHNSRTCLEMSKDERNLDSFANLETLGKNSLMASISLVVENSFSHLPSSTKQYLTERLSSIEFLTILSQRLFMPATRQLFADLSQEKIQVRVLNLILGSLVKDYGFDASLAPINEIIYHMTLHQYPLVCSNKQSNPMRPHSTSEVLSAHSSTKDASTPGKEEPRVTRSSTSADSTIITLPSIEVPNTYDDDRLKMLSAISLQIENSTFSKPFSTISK
Test: PBM E-score (8-mer binding enrichment) (E-score (-0.5 to 0.5)); higher = stronger / more preferred TF binding; most listed sequences are background and not binding sites
Conditions: protein concentration: 200 nM; construct: GST-full length
Method in brief: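 Bound GST-tagged yeast transcription factors, applied at about 100-200 nM to double-stranded universal all-10-mer Agilent arrays, were detected with fluorescent anti-GST. Scans were normalised with masliner. A modified Wilcoxon-Mann-Whitney statistic, the E-score, was assigned to each ungapped eight-base word pooled with its reverse complement by the Universal PBM Analysis Suite.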

Row | Sequence | PBM E-score
1 | GCAGCCCC | -0.358
2 | ATGGCGCG | -0.291
3 | AGGAGACC | -0.0781
4 | CCGTGCGC | -0.102
5 | GGATATTA | 0.0521
6 | ACCTTACG | -0.0139
7 | CAACTCAG | 0.0495
8 | AGATGCAT | -0.0321
9 | ACCAATAA | 0.0479
10 | CTGCGTAA | 0.183
11 | CACCCAAA | -0.0523
12 | CTTTTGCA | 0.0461
13 | AAATTCAG | -0.0847
14 | CCATAGGA | -0.0198
15 | TCCAGGAA | -0.0363
16 | ATCCAGAG | 0.0498
17 | AGTCAGCG | 0.453
18 | GAACCACC | 0.121
19 | GTGCAAAA | 0.0677
20 | CTTGACGC | -0.268
21 | TCGCAAGA | 0.0289
22 | TCCCCTAA | -0.228
23 | ACTGCTGC | 0.00729
24 | GTCGGAGA | 0.168
25 | ACTTGCGG | 0.018

Row | Sequence | PBM E-score
26 | ACCAGCTG | -0.0217
27 | AAGTCAGG | 0.341
28 | TACGTACA | -0.123
29 | CGCTAGGC | -0.113
30 | GGCCCCAA | -0.357
31 | CATATCAA | 0.0822
32 | CAGGTATA | -0.0622
33 | AAGATAGA | -0.0142
34 | AACGCTGG | -0.188
35 | ACGTATTC | -0.0455
36 | AGCCGAAT | 0.0167
37 | GCTTCGCC | -0.273
38 | CCTTATCG | 0.0971
39 | AGGTACGC | -0.191
40 | CCAGACCC | -0.221
41 | ACCAGATG | 0.0404
42 | CAGATTCG | 0.0206
43 | GGTGACAC | -0.0978
44 | AGGCGCCA | -0.102
45 | CGGGCCCC | -0.359
46 | CCGAGGGA | -0.196
47 | GGGACTCA | 0.405
48 | TCGCACGA | 0.0317
49 | CCTGCTCC | -0.19
50 | AATCATGA | 0.43

Row | Sequence | PBM E-score
51 | AATAAAAG | -0.0798
52 | CCAAGTCA | 0.317
53 | TCAAGACA | -0.0364
54 | AGTTTGGC | -0.228
55 | AAAAACTT | -0.0194
56 | CAGCGGGC | 0.0753
57 | CAAACAGG | -0.192
58 | CAGCTCCA | -0.117
59 | AATACAAG | -0.00695
60 | CCGCCCCC | -0.312
61 | CTCGAAAC | -0.00574
62 | AAGCAAAA | 0.0418
63 | CACACGGG | -0.0636
64 | GCTTCATA | -0.19
65 | CTGTGGGA | -0.116
66 | CAAATACA | -0.157
67 | CTAATTTC | 0.0706
68 | GCGATAGC | -0.116
69 | TAGAGAAA | -0.122
70 | ATCGATCC | -0.143
71 | CATGCGCG | -0.0174
72 | ATGCTTGG | -0.113
73 | CTACGAGA | 0.0266
74 | AGAAGAGA | 0.00892
75 | ATTTTTCA | 0.135

Row | Sequence | PBM E-score
76 | AAGAAGTC | 0.308
77 | CCTCCCCG | -0.0676
78 | AGGAATTA | 0.24
79 | CGATCAAA | 0.0183
80 | TAACCGCA | 0.096
81 | AATGGAGC | -0.0812
82 | GGTCCGAC | 0.0539
83 | GGGTTAAA | 0.0677
84 | CTTCTGTA | -0.0492
85 | CAGTTTCG | -0.0656
86 | GCGACCGA | -0.116
87 | AACTTCCC | -0.214
88 | CGAGAAAG | 0.0479
89 | AAGTTTGC | -0.0507
90 | CGAGCAGA | -0.0955
91 | AACGCACA | -0.185
92 | GCCGCGGC | -0.253
93 | ATCATGGA | 0.19
94 | ATTTCCTC | -0.0754
95 | CATAGCGG | -0.163
96 | CGCTCTGC | 0.121
97 | AACTCGTA | -0.019
98 | TGGTATAA | -0.0104
99 | AGATATCA | 0.0561
100 | GAACTTCC | -0.0438

Row | Sequence | PBM E-score
101 | CATAACGC | -0.193
102 | CATAGCGC | -0.00748
103 | AAGCTCAG | 0.0567
104 | TAAGCTCA | 0.0309
105 | AAACGAAA | 0.0828
106 | CCACACGA | -0.129
107 | CGTTTGAG | 0.175
108 | TAGGAACA | -0.0459
109 | AACGCGTT | 0.00692
110 | GTTCCCCA | -0.163
111 | GATGTGAA | -0.0458
112 | AAACTTCC | -0.0375
113 | GATATACC | -0.056
114 | CTGGGAGC | -0.283
115 | AGGAGGGC | -0.238
116 | CCATTCCA | -0.228
117 | CTGTGGGC | -0.194
118 | GGCACCGA | -0.172
119 | CCATACCC | -0.0548
120 | CGGAGACA | 0.0133
121 | CAACAGAG | 0.0683
122 | AAAACATC | -0.0742
123 | AACGCGTC | -0.185
124 | GCGAAATA | -0.0954
125 | GAAGCAAC | -0.179

Row | Sequence | PBM E-score
126 | CGCGGTGA | 0.107
127 | CCCCCGGA | -0.215
128 | ACCCTTAT | -0.0558
129 | AAAATTCG | 0
130 | AATCGCGC | 0.141
131 | AGCTCACC | -0.0458
132 | ACAACCAT | 0.204
133 | AGTCCGAG | 0.277
134 | AGCACTGG | -0.154
135 | TACTACTA | 0.0844
136 | GATCCAAA | 0.0195
137 | CCACTGAG | -0.0503
138 | ACCGCATC | -0.0934
139 | AGATCACC | 0.0405
140 | CGCGATTC | 0.268
141 | AACATTAA | -0.00496
142 | TACCGGGA | -0.16
143 | AGTACAGA | 0.173
144 | CTCATCTA | 0.226
145 | ACACTCGT | 0.0295
146 | CGAATCAG | 0.384
147 | ATACCTAG | 0.0272
148 | AAGAGGAG | -0.052
149 | CACCTTTA | -0.0652
150 | GAGTTATC | 0.145

Row | Sequence | PBM E-score
151 | AGTGTGTA | 0.0949
152 | CATCCCAC | -0.0485
153 | GATTCAAA | 0.371
154 | CAGAGCCG | -0.0738
155 | CGGCGCCA | -0.2
156 | ACGCCCCG | -0.191
157 | CCTGACAC | 0.023
158 | ACTAATGG | 0.171
159 | GATAGTGC | -0.282
160 | AATGTCCA | -0.315
161 | CAAATTCA | -0.243
162 | ACACCACT | 0.0393
163 | CCACCCGC | -0.0534
164 | AACAAGCT | -0.278
165 | GTTTGGGA | -0.0461
166 | GTAATTGA | 0.0754
167 | ATGGCAAT | -0.0797
168 | CTAGCTAC | -0.116
169 | GACCGGGA | -0.157
170 | GATTTACC | 0.00206
171 | AGTCGGGC | 0.286
172 | ACTGCTCC | -0.0976
